According to the supplement of paper PMC10126150:
Values marked as one replicate rest on one cluster of the flow cell; about a third of the high ones do not repeat.
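Also: ATP exposure 15 min at 22 °C before imaging.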

The sequences below were run on ATP (assay: switch fluorescence ratio, 500 uM ATP over buffer (Cy3 cluster intensity, sum of 5 cycles each) (fold (ratio)); higher = stronger signal-on switching upon ATP binding; sequences stand for … in TCGTCGGCAGCGTCAGATGTGTATAAGAGACAGTTTTTTTTTTTTTTTTTTTTTTTTT…TC). Conditions: aptamer strand: ATP DNA aptamer (quencher-CACCTGGGGGAGTATTGCGGAGGAAGG + anchor), 100 nM annealed; ATP concentration: 500 uM; one replicate.
Procedure, shortened: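 Clusters with intensities outside 100-1000 RFU were excluded. The remaining Cy3-labelled switching-strand clusters on a modified Illumina MiSeq flow-cell had been annealed to 100 nM quencher-labelled ATP aptamer and imaged in selection buffer, then after 15 min with 500 uM ATP at 22 °C, for five cycles separated by NaOH stripping and re-annealing. The fluorescence ratio, averaged per switch-domain sequence, is each cluster's summed target-cycle Cy3 intensity over its summed buffer-cycle Cy3 intensity.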
CGATTATATG showed a switch fluorescence ratio of 0.993. CGATTCCGTC showed a switch fluorescence ratio of 1.05. Work on CGATTCGTGG yielded a switch fluorescence ratio of 1. In the case of CGATTGAAAG, the switch fluorescence ratio is reported as 1.02. In the case of CGATTGGTCT, the switch fluorescence ratio is reported as 1. In the case of CGATTGTGG, the switch fluorescence ratio is reported as 0.994. CGATTTACCG was tested, and the switch fluorescence ratio was 0.97. For CGCAAAAATG, the switch fluorescence ratio was 1. In the case of CGCAAAAGA, the switch fluorescence ratio is reported as 1.16. In the case of CGCAAAGAGC, the switch fluorescence ratio is reported as 1.32. CGCAACGACT was tested, and the switch fluorescence ratio was 1.81. CGCAACGTTT showed a switch fluorescence ratio of 1.31. With CGCAACTTTG the switch fluorescence ratio was 1.1. For CGCAATGATT, the switch fluorescence ratio was 3.52. In the case of CGCACCGCCC, the switch fluorescence ratio is reported as 1.4. With CGCACGTAA the switch fluorescence ratio was 1.33. Sequence CGCACGTCGA has a switch fluorescence ratio of 1.05. CGCACTGGGA showed a switch fluorescence ratio of 1. With CGCAGAAGGG the switch fluorescence ratio was 0.983. With CGCAGACACC the switch fluorescence ratio was 1.66. In the case of CGCAGACCCG, the switch fluorescence ratio is reported as 1.11. Sequence CGCAGGCTGC has a switch fluorescence ratio of 1.02. For CGCAGGTCGT, the switch fluorescence ratio was 1.06. With CGCATAACTA the switch fluorescence ratio was 2.02. In the case of CGCATAGACC, the switch fluorescence ratio is reported as 2.53. CGCATCCATA showed a switch fluorescence ratio of 1.11. For CGCATCTGCC, the switch fluorescence ratio was 1.23. CGCATGTAAT was tested, and the switch fluorescence ratio was 1.08. With CGCATTAGGG the switch fluorescence ratio was 1.23. Sequence CGCCAAAATG has a switch fluorescence ratio of 1.67. CGCCAACGCT showed a switch fluorescence ratio of 1.09. CGCCACAGTA was tested, and the switch fluorescence ratio was 1.03. For CGCCACGTAT, the switch fluorescence ratio was 1.05. For CGCCAGCTGG, the switch fluorescence ratio was 0.986. In the case of CGCCAGTAGA, the switch fluorescence ratio is reported as 1. In the case of CGCCCATTTC, the switch fluorescence ratio is reported as 1.25. With CGCCCCAGCT the switch fluorescence ratio was 1.07. CGCCCCTAGT was tested, and the switch fluorescence ratio was 1.08. CGCCCTTGTT was tested, and the switch fluorescence ratio was 1.03. CGCCGCTGCT was tested, and the switch fluorescence ratio was 1.23. CGCCGGCGGT gave a switch fluorescence ratio of 0.965. Sequence CGCCGGGGTT has a switch fluorescence ratio of 1.2. Sequence CGCCGGTGCG has a switch fluorescence ratio of 0.972. Sequence CGCCGGTTGA has a switch fluorescence ratio of 1.05. Sequence CGCCTAAACA has a switch fluorescence ratio of 1.03. CGCCTACGTG showed a switch fluorescence ratio of 1.02. CGCCTCCTTG was tested, and the switch fluorescence ratio was 1.07. For CGCCTCTATA, the switch fluorescence ratio was 1.05. CGCCTCTGGG showed a switch fluorescence ratio of 1.07. Sequence CGCCTCTGTT has a switch fluorescence ratio of 1. Sequence CGCCTCTTGG has a switch fluorescence ratio of 0.947. CGCCTGAATG showed a switch fluorescence ratio of 0.991. CGCCTTTGTT gave a switch fluorescence ratio of 0.996. Work on CGCGAAACTC yielded a switch fluorescence ratio of 1.47. Work on CGCGAAGAAA yielded a switch fluorescence ratio of 1.04. Sequence CGCGAGTTCA has a switch fluorescence ratio of 0.992. In the case of CGCGATGCAC, the switch fluorescence ratio is reported as 2.58. Sequence CGCGATGGC has a switch fluorescence ratio of 2.54. For CGCGCCCACG, the switch fluorescence ratio was 1.04. Sequence CGCGCCCTTT has a switch fluorescence ratio of 1.07. For CGCGCCGTGT, the switch fluorescence ratio was 1.01. Sequence CGCGCGCGAG has a switch fluorescence ratio of 0.984. CGCGCGCTG was tested, and the switch fluorescence ratio was 1. In the case of CGCGCTTTTT, the switch fluorescence ratio is reported as 1. For CGCGGAAATG, the switch fluorescence ratio was 1. In the case of CGCGGACGCC, the switch fluorescence ratio is reported as 1.02. For CGCGGCGAAT, the switch fluorescence ratio was 1.14. In the case of CGCGGCTGC, the switch fluorescence ratio is reported as 1.05. In the case of CGCGGGTACA, the switch fluorescence ratio is reported as 1.04. Sequence CGCGGTTAAC has a switch fluorescence ratio of 1.3. Work on CGCGTAGTTC yielded a switch fluorescence ratio of 1.04. CGCGTGGTCC gave a switch fluorescence ratio of 1.03. For CGCGTGGTGA, the switch fluorescence ratio was 0.997. For CGCTAAAAAG, the switch fluorescence ratio was 1.07. Work on CGCTAAAACC yielded a switch fluorescence ratio of 1.13. CGCTAATCTA was tested, and the switch fluorescence ratio was 1.17. With CGCTAGAGTG the switch fluorescence ratio was 1.02. Work on CGCTAGCCAT yielded a switch fluorescence ratio of 1.03. CGCTCAAGAT gave a switch fluorescence ratio of 1.09. With CGCTCAGGCA the switch fluorescence ratio was 1.04. CGCTCAGTGC was tested, and the switch fluorescence ratio was 1.22. CGCTCATGGA showed a switch fluorescence ratio of 1.03. With CGCTCCCTTC the switch fluorescence ratio was 1.34. CGCTCGTGTA showed a switch fluorescence ratio of 1.04. CGCTCTACCC gave a switch fluorescence ratio of 2.81. Work on CGCTCTACTA yielded a switch fluorescence ratio of 1.36. Sequence CGCTCTATGG has a switch fluorescence ratio of 1.03. CGCTCTGCT gave a switch fluorescence ratio of 1.24. CGCTGACACG gave a switch fluorescence ratio of 1.06. For CGCTGACGGG, the switch fluorescence ratio was 1.05. Work on CGCTGAGGGG yielded a switch fluorescence ratio of 1.27. In the case of CGCTGAGTTC, the switch fluorescence ratio is reported as 1.06. Work on CGCTGCAAGG yielded a switch fluorescence ratio of 2.1. Work on CGCTGCCTCG yielded a switch fluorescence ratio of 1.03. CGCTGGCGGA was tested, and the switch fluorescence ratio was 1.05. With CGCTGGGCGG the switch fluorescence ratio was 1. In the case of CGCTGGTTGC, the switch fluorescence ratio is reported as 1.08. In the case of CGCTGTGGGG, the switch fluorescence ratio is reported as 0.976. For CGCTGTTTGC, the switch fluorescence ratio was 1.08. CGCTTAAACC showed a switch fluorescence ratio of 1.38. CGCTTAAAGG showed a switch fluorescence ratio of 1.05. CGCTTACATG gave a switch fluorescence ratio of 1.07. For CGCTTGATCC, the switch fluorescence ratio was 1.09. CGCTTGGGGA showed a switch fluorescence ratio of 1.06. Sequence CGGAAACTAC has a switch fluorescence ratio of 1.42. CGGAAATAGA showed a switch fluorescence ratio of 0.984. CGGAAATTTA gave a switch fluorescence ratio of 1.02. CGGAACCCTT showed a switch fluorescence ratio of 1. CGGAAGACC gave a switch fluorescence ratio of 1.16. For CGGAATCCAC, the switch fluorescence ratio was 1.27. Sequence CGGAATTTTG has a switch fluorescence ratio of 1.03. In the case of CGGACCCAGA, the switch fluorescence ratio is reported as 1.2. CGGACCTCCT was tested, and the switch fluorescence ratio was 1.13. Sequence CGGACCTGGA has a switch fluorescence ratio of 1.17. In the case of CGGACGCGGC, the switch fluorescence ratio is reported as 1.73. In the case of CGGACGCTAG, the switch fluorescence ratio is reported as 1.1. For CGGACGGGGC, the switch fluorescence ratio was 1.34. Sequence CGGAGCAGCG has a switch fluorescence ratio of 1.24. CGGAGCCCCG was tested, and the switch fluorescence ratio was 0.946. Sequence CGGAGGAATG has a switch fluorescence ratio of 1.23. Work on CGGAGGAGAA yielded a switch fluorescence ratio of 1.04. With CGGAGTACTT the switch fluorescence ratio was 1.16. CGGAGTCACT was tested, and the switch fluorescence ratio was 1.11. CGGAGTTGCC gave a switch fluorescence ratio of 1.03. Work on CGGATAAATA yielded a switch fluorescence ratio of 1.02. CGGATATAGC was tested, and the switch fluorescence ratio was 0.989. CGGATATTCT was tested, and the switch fluorescence ratio was 0.932. For CGGATCCCCA, the switch fluorescence ratio was 1.01. For CGGATGTGGA, the switch fluorescence ratio was 1.06. CGGATTTTTA gave a switch fluorescence ratio of 0.993. Sequence CGGCAAATTG has a switch fluorescence ratio of 1.01. CGGCAACCAT gave a switch fluorescence ratio of 1.05. CGGCAATCGT showed a switch fluorescence ratio of 1.78. CGGCAGAACT showed a switch fluorescence ratio of 2.64. CGGCAGACCA was tested, and the switch fluorescence ratio was 0.956. CGGCAGAGGA showed a switch fluorescence ratio of 1. In the case of CGGCAGCCGT, the switch fluorescence ratio is reported as 1.08. Work on CGGCAGCGAA yielded a switch fluorescence ratio of 1.05. In the case of CGGCAGTGTT, the switch fluorescence ratio is reported as 1.04. Sequence CGGCAGTTTG has a switch fluorescence ratio of 1.02. Sequence CGGCAGTTTT has a switch fluorescence ratio of 1.01. With CGGCATATGG the switch fluorescence ratio was 1.06. For CGGCATCGGG, the switch fluorescence ratio was 1.02. For CGGCATGG, the switch fluorescence ratio was 1. Sequence CGGCCAACAC has a switch fluorescence ratio of 3.05. In the case of CGGCCAAGAT, the switch fluorescence ratio is reported as 1.07. In the case of CGGCCAAGTT, the switch fluorescence ratio is reported as 1.04. In the case of CGGCCCGCAG, the switch fluorescence ratio is reported as 1.62. CGGCCCGTTT gave a switch fluorescence ratio of 0.989. For CGGCCCTGTA, the switch fluorescence ratio was 1.05. Work on CGGCCGGGTG yielded a switch fluorescence ratio of 1.02. With CGGCCGTAGC the switch fluorescence ratio was 1.12. CGGCCTTTGG was tested, and the switch fluorescence ratio was 1.03.
